{"source": "PubChem BioAssay AID504832", "about": "(National Center for Advancing Translational Sciences (NCATS), 2011)", "note": "Screen size: about 310,000 compounds; about 18,000 (5.8%) were called active. Inconclusive means that the source gave no clear call. Such entries were picked first, then a sample of the others. Calls follow the shape of the dose curve; as a rule, active = well fitted inhibition curve with a large enough effect; inconclusive = small, poorly fitted or top-dose-only effect, or another doubt; inactive = no such curve, though single readings can be large or run the other way. Potencies of inconclusive entries are left out as doubtful fits. Potency is read from the fitted curve at half-maximal effect; tags tell the direction and shape of the fitted curve.", "data": [{"test": "Primary qHTS for delayed death inhibitors of the malarial parasite plastid, 48 hour incubation", "conditions": "P. falciparum luciferase growth in erythrocytes; series mostly up to 28.7 µM", "method_in_brief": "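Growth was read as firefly luciferase luminescence after a 48 h, 37 C, 5% CO2 exposure of compounds to reporter-bearing P. falciparum cultures (0.1% parasitemia, 2% hematocrit final) in Albumax-supplemented RPMI 1640.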", "values": [{"smiles": "CCOC(=O)C1=C(COC(=O)C2(C)CC2(Cl)Cl)NC(=O)NC1c1ccccc1", "note": "(centres undefined)", "Potency": "inactive"}, {"smiles": "CCCn1c(SCC(=O)Nc2ccccc2N2CCOCC2)nc2c1c(=O)n(C)c(=O)n2C", "Potency": "inconclusive [inhibitor, partial curve, poor fit]"}, {"smiles": "COc1ccc(NS(=O)(=O)c2cccc(C(=O)NNC(=O)CN3C(=O)NC(C)(C)C3=O)c2)cc1", "Potency": "inactive"}, {"smiles": "CC1CCN(CCCN2C(=O)C3C(C(=O)Nc4ccc(Cl)cc4)C4C=CC3(O4)C2C(=O)NC2CCCCC2)CC1", "note": "(centres undefined)", "Potency": "inconclusive [inhibitor, partial curve]"}, {"smiles": "O=C(NCCc1ccccc1)c1ccc2c(=O)[nH]c3c(C(=O)NCC4CCCO4)sc(=S)n3c2c1", "note": "(centres undefined)", "Potency": "inconclusive [inhibitor, partial curve, poor fit]"}, {"smiles": "CCOC(=O)C1(c2ccccc2)CCN(CCC(=O)Nc2ccc(C(=O)OC)cc2)CC1", "Potency": "active: 5.22 µM"}, {"smiles": "O=[N+]([O-])c1ccc(S(=O)(=O)N2CCN(c3ccnc4cc(Cl)ccc34)CC2)cc1", "Potency": "active: 5.22 µM"}, {"smiles": "Cc1ccc(CN(Cc2cccnc2)C(=S)Nc2cc(Cl)ccc2C)cc1", "Potency": "inconclusive [inhibitor, partial curve, poor fit]"}, {"smiles": "Cc1ccc(C2CN(c3ccccc3)CC2C(=O)c2ccc(F)cc2)cc1", "note": "(centres undefined)", "Potency": "inconclusive [inhibitor, full curve, poor fit]"}, {"smiles": "CCOc1ccccc1Nc1nc2ccccc2[nH]1", "Potency": "inconclusive [inhibitor, single point]"}, {"smiles": "CCN1CCN(c2cc(C)c3cc(NC(=S)NCc4cccs4)ccc3n2)CC1", "Potency": "inconclusive [inhibitor, partial curve, poor fit]"}, {"smiles": "Cc1cc(C)nc(SCc2nnc(SCC(N)=O)n2Cc2ccco2)n1", "Potency": "inactive"}, {"smiles": "O=C(NC1CCCCC1)C1CCC(CNS(=O)(=O)c2ccccc2)CC1", "note": "(centres undefined)", "Potency": "inactive"}, {"smiles": "COc1ccc2oc(=O)cc(CN(C)Cc3ccccc3)c2c1", "Potency": "inconclusive [inhibitor, partial curve, poor fit]"}, {"smiles": "COC(=O)Cn1c2ccccc2c2nc3ccccc3nc21", "Potency": "inactive"}, {"smiles": "CCC(=O)NC(c1ccccc1OC)c1ccc2cccnc2c1O", "note": "(centres undefined)", "Potency": "active: 4.15 µM"}, {"smiles": "CCc1ccc(-c2cc(C)no2)cc1S(=O)(=O)N1CCN(c2ccccc2)CC1", "Potency": "inconclusive [inhibitor, single point]"}, {"smiles": "CN(Cc1ccccc1)C(=O)c1nc2ccccn2c1CNCCCOc1cccnc1", "Potency": "inconclusive [inhibitor, single point]"}, {"smiles": "OCC1(CC2CCCCO2)CCN(Cc2ccccc2-c2ccco2)CC1", "note": "(centres undefined)", "Potency": "inconclusive [inhibitor, partial curve]"}]}]}
